About 2,200 (0.71%) of roughly 310,000 compounds showed an effect of 50% or more. Effects have a minus sign here. This is one part of the list.

The target of this assay is human ether-à-go-go-related gene (hERG) potassium channel (human, UniProt Q12809). Kind of assay: primary screen, population patch clamp on CHO cells stably expressing hERG.
Sequence of human ether-à-go-go-related gene (hERG) potassium channel (Q12809 whole entry, looked up): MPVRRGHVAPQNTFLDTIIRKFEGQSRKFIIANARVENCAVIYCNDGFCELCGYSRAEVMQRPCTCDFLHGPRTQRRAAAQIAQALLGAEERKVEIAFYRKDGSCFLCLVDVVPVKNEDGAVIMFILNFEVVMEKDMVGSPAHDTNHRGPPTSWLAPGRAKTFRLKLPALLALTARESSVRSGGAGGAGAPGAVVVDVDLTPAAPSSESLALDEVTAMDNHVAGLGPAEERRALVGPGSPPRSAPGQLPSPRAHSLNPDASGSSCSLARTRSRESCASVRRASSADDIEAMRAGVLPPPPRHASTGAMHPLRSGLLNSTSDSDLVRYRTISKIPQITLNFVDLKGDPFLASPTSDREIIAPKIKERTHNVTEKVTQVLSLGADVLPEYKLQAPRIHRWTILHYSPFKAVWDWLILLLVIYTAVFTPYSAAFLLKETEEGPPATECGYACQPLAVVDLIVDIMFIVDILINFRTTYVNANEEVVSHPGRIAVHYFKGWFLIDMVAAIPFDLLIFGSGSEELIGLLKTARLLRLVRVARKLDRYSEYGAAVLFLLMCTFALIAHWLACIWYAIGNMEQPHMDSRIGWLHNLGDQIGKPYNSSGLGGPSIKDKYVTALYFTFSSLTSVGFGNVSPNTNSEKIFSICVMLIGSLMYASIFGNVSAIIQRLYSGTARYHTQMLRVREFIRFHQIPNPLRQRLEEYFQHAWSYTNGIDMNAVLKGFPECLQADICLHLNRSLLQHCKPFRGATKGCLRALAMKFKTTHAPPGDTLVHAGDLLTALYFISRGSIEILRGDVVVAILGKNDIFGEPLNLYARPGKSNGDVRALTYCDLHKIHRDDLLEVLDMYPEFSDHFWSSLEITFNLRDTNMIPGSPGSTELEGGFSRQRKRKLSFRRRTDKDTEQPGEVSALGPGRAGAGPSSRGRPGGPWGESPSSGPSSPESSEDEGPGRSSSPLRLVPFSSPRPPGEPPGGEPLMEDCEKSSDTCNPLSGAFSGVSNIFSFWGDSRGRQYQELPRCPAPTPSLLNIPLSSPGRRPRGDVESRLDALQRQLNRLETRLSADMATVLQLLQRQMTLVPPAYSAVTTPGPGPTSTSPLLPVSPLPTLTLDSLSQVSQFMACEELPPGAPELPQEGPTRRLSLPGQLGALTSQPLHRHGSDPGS
On to `O=C(NCCc1ccccc1F)C1CCCN(c2nc3ccccc3s2)C1` (stereo not shown), for which the “hERG current change (%, negative = inhibition) at 1uM” value is recorded as 9.71%.
`CCC(C)NCCCOc1ccc(C)cc1OC` (stereo not shown): the “hERG current change (%, negative = inhibition) at 1uM” value is listed as 9.42%.
As to `CCOC(=O)C(NCCc1ccc(F)cc1)(NC(=O)CC)C(F)(F)F` (stereo not shown), the “hERG current change (%, negative = inhibition) at 1uM” value was -0.198%.
As for `Cc1cc(C)cc(NC(=S)N(C)C)c1`, the “hERG current change (%, negative = inhibition) at 1uM” value worked out at 4.19%.
As for `O=S(=O)(c1ccc2ccccc2c1)N1CCNCC1`, the figure is 11.7%.
As to `CC1CCCN(C(=O)COC(=O)c2ccc[nH]c2=O)C1` (stereo not shown), the “hERG current change (%, negative = inhibition) at 1uM” value was determined as 16.7%.
As for `CCCC(C(=O)NC1CCCC1)N(CCCN1CCOCC1)C(=O)c1snc(C(N)=O)c1N` (stereo not shown), the figure is 3.18%.
Regarding `CC(C)CC(=O)c1c[nH]c(C(=O)NCc2ccc(F)cc2)c1`, the “hERG current change (%, negative = inhibition) at 1uM” value is reported as 6%.
With `CC(=Nc1ccccc1)C1=C(O)CSC1=O` the figure was 3.32%.
With `NCc1ccccc1COc1ccccc1.O=C(O)/C=C\C(=O)O` the figure was 4.75%.
With `C[C@@H]1CCC[C@]2(O[C@@H](CCO)C[C@@H](O)[C@@H]2O)O1` the figure was 14%; with `COc1ccc(S(=O)(=O)N[C@@H](C)C(=O)OCC(=O)Nc2cc3oc4ccccc4c3cc2OC)cc1`, 8.11%.
Turning to `c1csc(-c2cnc3ccccc3n2)c1`, the “hERG current change (%, negative = inhibition) at 1uM” value is 7.39%.
Take `CCN(CC)CC(=O)Nc1c2c(nc3ccccc13)N(C)CC2.O=C(O)C(=O)O`: the “hERG current change (%, negative = inhibition) at 1uM” value was 11.7%.
As for `CCc1noc(C)c1C(=O)NC1CCCc2c1cnn2-c1ccc(C(C)(C)C)cc1` (stereo not shown), the figure is 12.6%; as for `Cc1n[nH]c(C)c1S(=O)(=O)N1CCC(C(=O)N2CCn3c2nc2ccccc23)CC1`, 6.09%; as for `O=C(Nc1nc(-c2ccc(-c3ccccc3)cc2)cs1)C1=COCCO1`, 8.8%.
`Cc1ccc(-c2nc(Nc3cccc(O)c3)c3ccccc3n2)cc1`: the “hERG current change (%, negative = inhibition) at 1uM” value is recorded as 9.92%.
For the molecule `CC(C)C(CCNC1CCN(C)CC1)c1ccc(Cl)cc1` (stereo not shown), the “hERG current change (%, negative = inhibition) at 1uM” value was found to be 4.43%.
For the molecule `COC(=O)c1cn(NC(=O)c2ccc(F)cc2)c(=O)c2ccccc12`, the “hERG current change (%, negative = inhibition) at 1uM” value came out at 19.2%.
With `C[N+](C)(C)CCOC(=O)CBr.[Br-]` the figure was 12.2%; with `COc1ccc(CN2CCNC(=O)C2CC(=O)NCc2csc(C(C)C)n2)c(OC)c1` (stereo not shown), 2.91%.
With `O=C(OCC(=O)N1CCCCCC1)c1ccc(Cl)c(S(=O)(=O)N2CCCC2)c1` the figure was 3.94%.
With `COc1ccc(CN(CCN)C2CC(C)N(C)CC2C)cc1.Cl` (stereo not shown) the figure was 4.93%; with `Cc1[nH]c2ccccc2c1C(=O)COC(=O)C1CCC1`, -4.21%.
As to `COc1ccc(OC)c(Nc2cc(C(=O)NCCCN3CCOCC3)c3ccccc3n2)c1`, the “hERG current change (%, negative = inhibition) at 1uM” value was found to be 6.03%.
With `Cc1ccc2cccc(S(=O)(=O)N3CCN(c4ccccc4F)CC3)c2n1` the figure was 5.56%.
For the molecule `O=C(NC1CCCCC1)NC1CCN(C(=S)NCc2ccco2)CC1`, the “hERG current change (%, negative = inhibition) at 1uM” value was -0.608%.
With `CC(=O)Nc1oc(-c2cccc3ccccc23)nc1C#N` the figure was 7.54%; with `CC(C)Oc1c(Br)cc(Br)cc1/C=N/NC(N)=S`, 15.7%; with `COc1ccc(NC(=O)c2ccc(NC(=O)COC(=O)c3cnc(C)cn3)cc2)cc1`, 4.02%.
`O=C(NCCCn1ccnc1)C(Cl)(Cl)Cl`: the “hERG current change (%, negative = inhibition) at 1uM” value worked out at 9.89%.
As for `CCCCn1nc(C(=O)Oc2ccc3c(C)cc(=O)oc3c2)c2ccccc2c1=O`, the figure is 1.16%; as for `O=C(CN(C(=O)CCC(=O)Nc1nccs1)c1cccc(F)c1)NCC1CCCO1` (stereo not shown), 5.97%.
Consider `CC1(C)CC(=O)C(CC(=O)Nc2cc(C(F)(F)F)ccc2Cl)C(=O)C1`, for which the “hERG current change (%, negative = inhibition) at 1uM” value is -0.58%.
With `CCn1c(SCC(=O)Nc2cc(OC)ccc2OC)nc2c(c1=O)SCC2` the figure was 13.5%.
As for `Cc1ccc(S(=O)(=O)N2[C@@H](c3cccc(Cl)c3)C(C(=O)O)=CC[C@H]2c2ccc3c(c2)OCO3)cc1`, the “hERG current change (%, negative = inhibition) at 1uM” value was 15.2%.
With `Nc1ccc2oc3ccccc3c2c1` the figure was 5.01%; with `O=C(OCc1cnc(Cl)s1)c1ccccc1Cl`, -0.356%.
With `CN(C)C(=S)Nc1ccc([N+](=O)[O-])cc1` the figure was 5.28%.
In the case of `Cc1ccc2c(c1)CC(C)N2S(=O)(=O)c1nnc(NC(=O)CC(C)C)s1` (stereo not shown), the “hERG current change (%, negative = inhibition) at 1uM” value was 23.3%.
As for `CNC(=O)CSCc1cnn(-c2ccccc2)c1-n1cccc1`, the figure is 9.61%; as for `O=C(NCCCn1ccnc1)c1cc(S(=O)(=O)N2CCOCC2)c(Cl)cc1Cl`, 8.28%; as for `COc1ccccc1Nc1ncc(C(=O)N2CCC(C(N)=O)CC2)c2ccccc12`, 6.37%.
Consider `Cc1noc(C)c1C(=O)N1CCCC(C(=O)c2cccc(OC(C)C)c2)C1` (stereo not shown), for which the “hERG current change (%, negative = inhibition) at 1uM” value is recorded as 9.16%.
As for `COc1ccnc(-n2cccc2/C=N/O)c1C#N`, the figure is 10.7%; as for `CC(C)C(=O)Nc1ccc(-c2csc(-c3ccccc3)n2)cc1`, -0.458%; as for `CCn1c(=O)c([N+](=O)[O-])c(N2CCN(Cc3ccc4c(c3)OCO4)CC2)c2ccccc21`, 10.5%.
With `CC(C)(C)OC(=O)N[C@@H](CC(=O)OCc1ccccc1)C(=O)O` the figure was 8.44%; with `Cc1cc[n+](CC[n+]2ccc(C)cc2)cc1.[Br-]`, 6.78%; with `CCc1nnc(NC(=O)CSc2nnc(CNc3ccc(F)cc3)n2C2CCCCC2)s1`, 3.42%.
With `O=C(Nc1cccc(-c2cccc(Cl)c2)c1)C1CCN(CC2CCOC2)CC1` (stereo not shown) the figure was -15%; with `Cc1cccc(NC(=O)c2ccc(NC(=O)CC3SC(N4CCCC4)=NC3=O)cc2)n1` (stereo not shown), 11.7%; with `COC(=O)c1cc2occc2n1CC(=O)Nc1ccc(OC)c(OC)c1OC`, 11.1%.
On to `O=C(Nc1cccnc1Cl)c1cccs1`, for which the “hERG current change (%, negative = inhibition) at 1uM” value stood at 17.2%.
With `c1ccc(OCc2noc(CN3CCC(C4CCCCC4)C3)n2)cc1` (stereo not shown) the figure was 10.6%.
In the case of `CCc1c(O)nc(SCC(=O)N2CCc3cc(OC)c(OC)cc3[C@@H]2C)[nH]c1=O`, the “hERG current change (%, negative = inhibition) at 1uM” value is -0.368%.
With `CCCCCC(=O)Nc1nc2ccccc2[nH]1` the figure was 9.51%.

The values above are taken from publication PMC4336329 (PLoS ONE, 2015).
